# Source: paper PMC4336329 (PLoS ONE, 2015)
# The campaign covered roughly 310,000 compounds. About 14,000 (4.5%) showed an effect of 50% or more. The effect is printed as a negative number. The list shows a part of the results.
# Target: human ether-à-go-go-related gene (hERG) potassium channel (human, UniProt Q12809)
# Experiment: primary screen, population patch clamp on CHO cells stably expressing hERG
# 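Also: peak tail current of the secondary pulse compared with the same well before compound.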
# Sequence of human ether-à-go-go-related gene (hERG) potassium channel (Q12809 whole entry, looked up): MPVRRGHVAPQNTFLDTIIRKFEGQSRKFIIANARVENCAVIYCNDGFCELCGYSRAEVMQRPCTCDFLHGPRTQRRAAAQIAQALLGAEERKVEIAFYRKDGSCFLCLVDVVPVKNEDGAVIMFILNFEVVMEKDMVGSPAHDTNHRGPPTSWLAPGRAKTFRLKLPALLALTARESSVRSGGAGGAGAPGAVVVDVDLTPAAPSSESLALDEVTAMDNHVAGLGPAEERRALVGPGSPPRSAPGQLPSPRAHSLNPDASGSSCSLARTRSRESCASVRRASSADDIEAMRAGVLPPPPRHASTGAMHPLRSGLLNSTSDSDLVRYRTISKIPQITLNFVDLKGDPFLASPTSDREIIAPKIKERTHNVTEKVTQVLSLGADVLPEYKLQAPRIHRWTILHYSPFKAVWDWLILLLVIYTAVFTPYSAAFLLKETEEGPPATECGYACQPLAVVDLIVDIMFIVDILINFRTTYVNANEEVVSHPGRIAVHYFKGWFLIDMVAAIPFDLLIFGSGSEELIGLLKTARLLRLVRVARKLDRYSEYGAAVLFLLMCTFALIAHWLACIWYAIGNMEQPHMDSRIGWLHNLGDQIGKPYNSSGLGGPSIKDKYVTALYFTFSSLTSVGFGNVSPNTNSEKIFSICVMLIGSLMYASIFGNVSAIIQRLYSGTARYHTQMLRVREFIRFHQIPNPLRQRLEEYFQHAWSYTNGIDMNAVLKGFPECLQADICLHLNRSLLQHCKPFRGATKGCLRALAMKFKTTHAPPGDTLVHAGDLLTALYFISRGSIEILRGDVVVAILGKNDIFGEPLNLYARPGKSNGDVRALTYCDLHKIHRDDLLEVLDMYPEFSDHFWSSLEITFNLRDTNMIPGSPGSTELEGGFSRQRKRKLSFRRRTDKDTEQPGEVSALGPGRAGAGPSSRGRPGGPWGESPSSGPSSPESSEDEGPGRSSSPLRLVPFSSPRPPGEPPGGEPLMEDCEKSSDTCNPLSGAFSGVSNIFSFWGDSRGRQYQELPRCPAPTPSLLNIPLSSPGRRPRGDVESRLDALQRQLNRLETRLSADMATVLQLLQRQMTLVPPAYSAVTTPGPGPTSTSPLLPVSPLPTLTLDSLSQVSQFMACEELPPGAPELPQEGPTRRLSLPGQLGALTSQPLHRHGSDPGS
row,SMILES,"hERG current change (%, negative = inhibition) at 10uM"
1,Cc1ccc(NS(=O)(=O)c2ccc(CCC(=O)NCc3cccnc3)cc2)cc1,14.9%
2,CCN(CC)CCCn1c2c(c(SCC(=O)Nc3ccc(C)c(F)c3)nc1=O)CCC2,-64.5%
3,COC(=O)C1=C(CSc2nncn2C)NC(=O)NC1c1ccc(F)cc1 (centres unmarked),11.1%
4,Cc1nc2c(C)cccc2cc1C(=O)N/N=C/c1ccc(O)cc1,6.88%
5,CCc1nc(N[C@@H](CC(C)C)C(=O)O)c2oc3ccccc3c2n1,-9.19%
6,CCOc1ccc(Br)cc1C(=O)N/N=C/c1cccnc1,1.64%
7,CN1C(=O)C(=C2CCCCCC2)SC1=S,6.39%
8,Cc1ccccc1OCC(=O)Nc1ccccc1-c1ccccc1NC(=O)COc1ccccc1C,1.48%
9,CC(=O)N1CC(=O)Nc2ccc(Cl)cc2C1c1ccc(F)cc1 (centres unmarked),-22.6%
10,C/C(=N\NC(=O)COc1ccc2ccccc2c1)c1cccs1,-22.3%
11,O=C(NCc1ccco1)c1ccc(=O)oc1,2.12%
12,Cc1cccc(NC(=O)C2CCCN2/C=C/C(=O)C(F)(F)F)c1C (centres unmarked),4.61%
13,COc1ccc(NC(=O)NNC(=O)COc2ccc(Cl)cc2C)cc1OC,7.77%
14,O=C(CCN1C(=O)S/C(=C/c2ccc(F)cc2)C1=O)Nc1ccc(O)c(C(=O)O)c1,18.4%
15,COc1ccc(NC(=O)COc2cc(O)c3c(c2)OC(C)(C)CC3=O)cc1,-17.5%
16,Cn1nc(-c2ccccc2)cc1NC(=O)CCCC(=O)O,15.1%
17,Cc1ccc2nc(-c3cccc(NC(=O)c4ccc5c(c4)OCCO5)c3)oc2c1,2.47%
18,CCc1ccccc1NC(=O)C1NC(=O)CC1c1ccccc1 (centres unmarked),-7.59%
19,CC12CCC(=O)N1C(C(=O)Nc1nc(-c3ccccc3)cs1)CS2 (centres unmarked),10.1%
20,CC1CN(C(=O)/C=C/c2ccc([N+](=O)[O-])s2)CC(C)O1 (centres unmarked),-39%
21,O=C(Nc1cc(-c2ccccc2)[nH]n1)c1ccc(Cl)cc1,1.2%
22,COc1ccccc1C(=O)COC(=O)/C=C/c1ccccc1,-19.2%
23,Cc1c(C#N)c2ncn(Cc3ccccn3)c(=O)c2n1-c1ccccc1,-10.8%

row,SMILES,"hERG current change (%, negative = inhibition) at 10uM"
1,COC(=O)C1=C(C)N(Cc2ccc(OC)cc2)C(=O)C1,14.8%
2,C/C(=N\N1C(C)CCCC1C)c1ccccc1O (centres unmarked),14.1%
3,Cn1/c(=N/NC(=O)c2ccccc2Br)sc2ccccc21,8.23%
4,O=S(=O)(c1ccccc1)c1ccc(NCc2ccco2)cc1,-4.21%
5,CC1(C)COCN1S(=O)(=O)c1ccc(C(=O)Nc2nnc(-c3ccc(Cl)s3)o2)cc1,-5.52%
6,CCOc1ccc(NC(=S)NC(=O)c2c(Cl)c(C)nn2C)c([N+](=O)[O-])c1,8.55%
7,O=C(c1ccccc1)c1ccccc1NC(=O)C1CCCN1Cc1ccccc1 (centres unmarked),3.87%
8,CC(=O)N1CCN(S(=O)(=O)c2ccc(S(=O)(=O)NC3CC3)cc2)CC1,-6.62%
9,COc1ccc(C(=O)NCC(c2ccco2)N2CCc3ccccc32)cc1 (centres unmarked),-2.29%
10,COc1ccc(N2CS(=O)(=O)/C(=C/N(C)C)C2=O)cc1,-5.92%
11,CC1Cc2ccccc2N1C(=O)CSc1nc(-c2ccccc2)cs1 (centres unmarked),3.32%
12,O=C(O)CSC1=NC(=Nc2ccc(Cl)cc2)C2(CCCCC2)N1c1cccc(C(=O)O)c1,2.7%
13,Cc1ccc(-c2[nH]nc3c2C(c2ccsc2)C(C#N)=C(N)O3)cc1 (centres unmarked),-18.9%
14,O=C(CCN1CCCO1)N1CCCC(N2CCN(c3ccccc3F)CC2)C1 (centres unmarked),6.67%
15,Cc1ccc(C)c(NC(=O)COC(=O)c2ccc(S(=O)(=O)N3CCCCC3)cc2)c1,-3.34%
16,Cc1ccc(N2CC(C(=O)OCC(=O)NNC(=O)c3ccccc3)CC2=O)cc1 (centres unmarked),5.66%
17,Cc1cc(=O)[nH]c(-c2ccccc2OC(F)(F)F)n1,12.3%
18,C=CCn1c(SCc2nc3ccccc3c(=O)[nH]2)nnc1-c1cc2cc(Cl)ccc2o1,-12.3%
19,C=CCNC(=O)c1cc(Cl)ccn1,-5.66%
20,O=C(NC1CCCN(Cc2ccc(Cl)cc2)C1)c1ccccc1C(F)(F)F (centres unmarked),-16.9%
21,COc1ccc(OCC(=O)Nc2ccccc2N2CCCCC2)cc1,5.52%
22,Br.Cc1ccc2nc(-c3ccccc3)cn2c1,-2.74%
23,CC(C)c1ccc(NC(=O)COC(=O)c2ccc(CN3CCCC3=O)cc2)cc1,8.82%

row,SMILES,"hERG current change (%, negative = inhibition) at 10uM"
1,Cc1oc(-c2ccccc2Cl)nc1CN1CCCC1c1ccc(F)cc1 (centres unmarked),-10.8%
2,CCN1C(=O)C(Cc2nc3ccccc3c(=O)n2C)c2ccccc21 (centres unmarked),-3.68%
3,CCCCNC(=O)OC(C)CNC(=O)OC (centres unmarked),-7.79%
4,O=C(NCC1CCCO1)c1ccc(F)c2ccccc12 (centres unmarked),3.7%
5,Cc1nc([N+](=O)[O-])c(N2CCN(Cc3ccccc3)CC2)n1Cc1ccccc1,-64.3%
6,CN1CCC2(CC1)N=C(c1ccc(F)cc1)C(=S)N2C(=O)c1ccc(C(C)(C)C)cc1,-6.86%
7,CCC(C)[C@H]1CNCCN1CCc1cccc2ccccc12 (some centres unmarked),7.69%
8,C/C(CCc1oc2ccc(Br)cc2c1-c1ccc(C)o1)=N/O,4.5%
9,CCN(CC(=O)NC1CCS(=O)(=O)C1)C(=O)/C=C/c1cccs1 (centres unmarked),61.8%
10,COc1cccc(OCCNC(=O)c2ccc(C)cc2)c1,8.59%
11,Cc1ccc(-n2c(SCC(=O)NCCC3=CCCCC3)nc3n[nH]c(C)c3c2=N)cc1Cl,-9.38%
12,O=C(c1ccc2c(c1)N(Cc1ccccc1)CCS2)N1CCC2(CC1)OCCO2,-56.1%
13,COc1ccc(CC2(C)OC(c3ccc(C)cc3)=NN2C(C)=O)cc1 (centres unmarked),1.44%
14,Cc1cc(C)nc(/N=C(\N)Nc2ccc(CC(=O)OC(C)C)cc2)n1,-67.6%
15,CCCn1nnnc1SCC(=O)N1C(C)CCCC1C (centres unmarked),18.9%
16,COC(=O)CSc1nnc(CNC(=O)c2ccco2)n1-c1ccc(F)cc1,-10.3%
17,COc1ccc(C(=O)Nc2ccc(NC(=O)c3cccs3)cn2)cc1,7.25%
18,COC(=O)CSc1ncc(S(=O)(=O)c2ccccc2)c(=O)[nH]1,26.4%
19,Cc1ccc(C)c(N2CCN(c3nnnn3-c3ccccc3)CC2)c1,5.08%
20,CC(OC(=O)CCCN=C1NS(=O)(=O)c2ccccc21)C(=O)c1ccccc1 (centres unmarked),-7.8%
21,O=C(NN=C1CCN(Cc2ccccc2)CC1)c1ccccc1O,16%
22,COc1ccc(C(=O)CC(c2ccccc2)C2C(=O)CCCC2=O)cc1 (centres unmarked),0.865%
23,CCc1cc(C(N)=S)ccn1,14.7%

row,SMILES,"hERG current change (%, negative = inhibition) at 10uM"
1,Cc1ccc(C(=O)Nc2cc(Cl)ccc2-n2cncn2)o1,-17.9%
2,O=C(O)CCC(=O)Nc1ccc(Oc2ncnc3cc(Cl)ccc23)nc1,16.6%
3,CCCCNC(=O)C1CCC(CNc2nc(=S)[nH]c3ccccc23)CC1 (centres unmarked),15.6%
4,Cc1ccc(Cn2nnc3c(=O)[nH]c(C4CCCN(C(=O)Nc5ccc(F)cc5)C4)nc32)cc1 (centres unmarked),-5.1%
5,CCC(Sc1ccc(C(=O)O)cc1)C(=O)O (centres unmarked),14.5%
6,CCOc1ccc(N2CC(C(=O)Nc3ccccc3OC)CC2=O)cc1 (centres unmarked),-6.29%
7,CC(C)(C)c1ccc(C(=O)NCc2nnc(SCC(=O)NCc3ccco3)o2)cc1,6.17%
8,Cc1c(NC(=O)c2cccnc2Cl)c(=O)n(-c2ccccc2)n1C,10.6%
9,NC(=O)c1ccccc1NC(=O)/C=C/c1cccc(Cl)c1,-10.1%
10,CCN(CC)C(=O)c1sc(NC(=O)c2ccc3c(c2)OCO3)c(C(N)=O)c1C,-1.11%
11,CN(CCNC(=O)C1CCC(=O)N(Cc2ccc(Cl)cc2)C1)CCc1ccccc1 (centres unmarked),-72.6%
12,CCOC(=O)c1c(C)[nH]c(C(=O)NNC(=O)c2ccc(Br)cc2)c1C,-17.8%
13,O=C1CCCC2=C1C(c1ccc(O)c(O)c1)Nc1ccc3ncccc3c12 (centres unmarked),16%
14,CCCc1cc(-c2ccc(O)c(OCC)c2)c(C#N)c(N)n1,3.84%
15,CCc1cccc(C)c1NC(=O)COC(=O)c1cc([N+](=O)[O-])ccc1N1CCOCC1,15%
16,CC1(C)CC(C)(c2ccc(O)cc2O)N(c2cccc(Cl)c2)C(=S)N1 (centres unmarked),2.04%
17,Cc1ccc([C@@H]2C3COCC=C3C(C#N)=C(N)C2(C#N)C#N)o1 (some centres unmarked),-9.59%
18,CCCCCC(=O)Nc1cccc(C2=NOC3(C2)C[C@H](C(N)=O)N(C(=O)c2ccccc2C(=O)c2ccccc2)C3)c1 (some centres unmarked),-1.69%
19,O=C(CSc1nnc(Cn2c(=O)sc3ccccc32)n1-c1ccccc1)N1CCOCC1,-5.2%
20,O=C(NN=C1CCN(Cc2ccccc2)CC1)c1cc(Br)ccc1O,-4.59%
